Some of these densities may be calculated back from excess volumes.
Assay: xn = mol fraction of the nth substance listed
Settings: 101 kPa

CC[n+]1ccn(C)c1.F[B-](F)(F)F + CC(=O)N(C)C
mass density [kg/m3]
Settings | x2 = 0 | x2 = 0.0996 | x2 = 0.1998 | x2 = 0.2995 | x2 = 0.3989 | x2 = 0.5005 | x2 = 0.6 | x2 = 0.6996 | x2 = 0.8001 | x2 = 0.8994
303.15 K | – | 1254.1 | – | 1209.3 | 1184.7 | – | – | – | – | 993.7
313.15 K | 1265.2 | 1246.5 | 1225.3 | 1201.6 | 1176.9 | – | – | 1078.3 | 1035.1 | 985
323.15 K | – | 1239 | 1217.7 | – | 1169.1 | 1139.8 | 1107.3 | 1070.1 | 1026.7 | 976.2
333.15 K | 1250.3 | 1231.5 | 1210.2 | – | – | 1132 | 1099.3 | 1062 | 1018.2 | 967.5

CC(=O)N(C)C + CC[n+]1ccn(C)c1.F[B-](F)(F)F
x1 = 1
Settings | mass density [kg/m3]
303.15 K | 931.7
313.15 K | 922.4
323.15 K | 913.2
333.15 K | 903.9

CS(C)=O + CC[n+]1ccn(C)c1.F[B-](F)(F)F
x1 = 1
Settings | mass density [kg/m3]
303.15 K | 1090.4
313.15 K | 1080.4
323.15 K | 1070.3
333.15 K | 1060.3

CC[n+]1ccn(C)c1.F[B-](F)(F)F + CN(C)C=O
mass density [kg/m3]
Settings | x2 = 0 | x2 = 0.1016 | x2 = 0.2994 | x2 = 0.3987 | x2 = 0.5005 | x2 = 0.6004 | x2 = 0.7 | x2 = 0.7997 | x2 = 0.8999
303.15 K | 1272.8 | 1256.8 | 1220.6 | 1198.4 | 1172.1 | 1141.9 | 1106 | 1063 | 1009.2
313.15 K | – | 1249.2 | 1212.8 | – | – | 1133.8 | 1097.7 | – | 1000.2
323.15 K | – | 1241.6 | – | – | – | – | 1089.3 | 1045.7 | –
333.15 K | 1250.3 | 1234.1 | 1197.5 | – | 1148.3 | 1117.6 | 1081.1 | 1037.2 | 982.3

CC[n+]1ccn(C)c1.F[B-](F)(F)F + CS(C)=O
mass density [kg/m3]
Settings | x2 = 0 | x2 = 0.1001 | x2 = 0.2007 | x2 = 0.2996 | x2 = 0.4 | x2 = 0.4996 | x2 = 0.6002 | x2 = 0.7002 | x2 = 0.7996 | x2 = 0.9002
303.15 K | 1272.8 | 1266.4 | – | – | – | 1222.1 | – | 1186.2 | – | 1131.1
313.15 K | 1265.2 | 1258.7 | 1249.5 | – | 1227.6 | 1214 | 1197.6 | 1177.7 | 1153.3 | 1121.8
323.15 K | 1257.7 | 1251.1 | 1241.9 | 1231.7 | – | 1205.9 | 1189.3 | 1169.3 | 1144.5 | –
333.15 K | 1250.3 | 1243.7 | 1234.3 | 1224 | 1211.9 | 1198 | 1181.2 | 1160.8 | 1135.8 | –
